Experimental data published in publication PMC1282572.

Target: T1, Avidin (chicken) (chicken), P02701
T1 chain: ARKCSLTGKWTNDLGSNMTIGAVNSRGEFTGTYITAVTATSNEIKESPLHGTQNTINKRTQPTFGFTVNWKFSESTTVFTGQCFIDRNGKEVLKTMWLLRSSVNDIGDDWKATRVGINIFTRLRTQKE
Assay: SEC; FPLC gel filtration, Superdex HR 10/30 column, 50 mM NaCO3 (pH 11.0), 150 mM NaCl; calibrated with IgG, BSA and ovalbumin; oligomeric state (tetramer)
Settings: remark: other sources report otherwise

stoichiometry N: 4
B1: Avidin (chicken), P02701 25-152 (natural protein)
chain: T1 chain
